{"source": "paper PMC4336329", "about": "(PLoS ONE, 2015)", "note": "Among all 310,000 compounds or so, about 2,200 (0.71%) showed an effect of 50% or more. Effects have a minus sign here. This is one part of the list.", "data": [{"target": "human ether-à-go-go-related gene (hERG) potassium channel (human, UniProt Q12809)", "sequence (Q12809 whole entry, looked up)": "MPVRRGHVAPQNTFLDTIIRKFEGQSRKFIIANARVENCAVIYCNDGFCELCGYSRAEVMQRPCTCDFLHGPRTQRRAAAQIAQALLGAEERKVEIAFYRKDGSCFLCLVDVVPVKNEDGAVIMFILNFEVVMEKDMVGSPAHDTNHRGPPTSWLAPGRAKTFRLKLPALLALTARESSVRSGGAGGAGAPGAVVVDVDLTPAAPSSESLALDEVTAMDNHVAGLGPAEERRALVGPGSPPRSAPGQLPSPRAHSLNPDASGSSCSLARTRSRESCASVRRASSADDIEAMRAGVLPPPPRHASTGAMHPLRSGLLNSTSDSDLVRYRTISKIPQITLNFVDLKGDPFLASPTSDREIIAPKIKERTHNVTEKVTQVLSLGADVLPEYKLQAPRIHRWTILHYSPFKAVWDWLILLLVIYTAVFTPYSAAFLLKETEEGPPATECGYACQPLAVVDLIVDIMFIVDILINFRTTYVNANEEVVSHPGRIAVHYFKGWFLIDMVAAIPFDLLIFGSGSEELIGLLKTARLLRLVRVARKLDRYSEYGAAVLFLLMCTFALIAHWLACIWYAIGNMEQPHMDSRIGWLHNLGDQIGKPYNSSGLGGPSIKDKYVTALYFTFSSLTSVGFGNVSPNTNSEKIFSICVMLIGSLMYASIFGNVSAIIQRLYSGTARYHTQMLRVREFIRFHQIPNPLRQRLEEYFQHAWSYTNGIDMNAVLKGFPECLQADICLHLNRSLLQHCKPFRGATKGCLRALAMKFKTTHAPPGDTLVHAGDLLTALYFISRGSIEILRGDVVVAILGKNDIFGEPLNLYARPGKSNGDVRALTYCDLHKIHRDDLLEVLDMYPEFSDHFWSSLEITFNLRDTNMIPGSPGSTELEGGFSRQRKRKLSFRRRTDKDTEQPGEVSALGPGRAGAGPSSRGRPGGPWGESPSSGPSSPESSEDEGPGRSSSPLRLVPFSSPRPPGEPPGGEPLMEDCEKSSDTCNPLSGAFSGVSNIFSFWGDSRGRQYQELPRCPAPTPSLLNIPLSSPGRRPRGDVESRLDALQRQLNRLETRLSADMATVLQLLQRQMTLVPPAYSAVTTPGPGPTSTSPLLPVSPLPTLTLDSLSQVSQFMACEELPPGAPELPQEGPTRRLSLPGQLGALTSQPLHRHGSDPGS", "experiment": "primary screen, population patch clamp on CHO cells stably expressing hERG", "units": {"hERG current change (%, negative = inhibition) at 1uM": "%"}, "values": [{"smiles": "Cn1c(/C(C#N)=C/c2ccc(O)cc2)nc2ccccc21", "hERG current change (%, negative = inhibition) at 1uM": 13.3}, {"smiles": "CC1C2=C(CC(C)(C)CC2=O)NC2=C1C(=O)CC(C)(C)C2", "hERG current change (%, negative = inhibition) at 1uM": 11.2}, {"smiles": "CCOC(=O)N1CCN(Cc2nc(-c3cccs3)no2)CC1", "hERG current change (%, negative = inhibition) at 1uM": 4.84}, {"smiles": "CCOC(=O)NC1=NCC(C)S1", "note": "(stereo not drawn)", "hERG current change (%, negative = inhibition) at 1uM": 10.2}, {"smiles": "Cc1ccc(NC(=O)CSc2nnc(-c3cc(C)on3)o2)cc1", "hERG current change (%, negative = inhibition) at 1uM": 17.9}, {"smiles": "COc1ccc(NS(=O)(=O)/C=C/c2ccc(OC)c(OC)c2)cc1", "hERG current change (%, negative = inhibition) at 1uM": 10.9}, {"smiles": "C[N+]1(C)CC2([N+](=O)[O-])CC=C(Oc3ccccc3)C([N+](=O)[O-])(C2)C1", "note": "(stereo not drawn)", "hERG current change (%, negative = inhibition) at 1uM": 4.61}, {"smiles": "CCCCn1cnc2c(oc3nc4c(cc32)CCCC4)c1=O", "hERG current change (%, negative = inhibition) at 1uM": -4.18}, {"smiles": "Cc1[nH]c2ccccc2c1CCN(Cc1cccs1)C(=S)NC(C)(C)C", "hERG current change (%, negative = inhibition) at 1uM": 6.48}, {"smiles": "O=C(NCc1ccco1)C1CC(=O)N(c2cccc(Cl)c2)C1", "note": "(stereo not drawn)", "hERG current change (%, negative = inhibition) at 1uM": -2.9}, {"smiles": "O=S(=O)(c1ccc(Cl)c(NC(=S)Nc2ccccc2N2CCOCC2)c1)N1CCOCC1", "hERG current change (%, negative = inhibition) at 1uM": 13.6}, {"smiles": "COc1ccc2c(c1)c(C(=O)O)c(C)n2-c1ccc(Cl)cc1", "hERG current change (%, negative = inhibition) at 1uM": 13}, {"smiles": "COc1ccccc1C(=O)N1N=C(c2ccc(NS(C)(=O)=O)cc2)CC1c1cccs1", "note": "(stereo not drawn)", "hERG current change (%, negative = inhibition) at 1uM": 11.1}, {"smiles": "CCOC(=O)CCc1c(C)c2ccc(OCC(=O)OC(C)C)cc2oc1=O", "hERG current change (%, negative = inhibition) at 1uM": 14.2}, {"smiles": "Cc1ccc(C)c(C(=O)COC(=O)CN2C(=O)C3C4CCC(C4)C3C2=O)c1", "note": "(stereo not drawn)", "hERG current change (%, negative = inhibition) at 1uM": 14.9}, {"smiles": "O=C(CSc1nc2c(sc3ccccc32)c(=O)n1CCCN1CCCC1)NCc1ccccc1", "hERG current change (%, negative = inhibition) at 1uM": -67.9}, {"smiles": "COc1ccc(C2(C)NC(=O)N(CC(=O)Nc3c(C)n(C)n(-c4ccccc4)c3=O)C2=O)cc1", "note": "(stereo not drawn)", "hERG current change (%, negative = inhibition) at 1uM": 17.7}, {"smiles": "COC(=O)c1ccccc1OC(=O)c1cc2ccccc2oc1=O", "hERG current change (%, negative = inhibition) at 1uM": 10.5}, {"smiles": "Cc1cccc(-c2nnc(SCC(=O)O)n2Cc2ccccc2)c1", "hERG current change (%, negative = inhibition) at 1uM": 12.5}, {"smiles": "CCOC(=O)N1CCN(C(=O)CSc2nnc(-c3cccc(Cl)c3)o2)CC1", "hERG current change (%, negative = inhibition) at 1uM": 0.557}, {"smiles": "O=C(Nc1cc(=O)[nH]c2nc(-c3ccccc3)nn12)c1ccc(Cl)cc1", "hERG current change (%, negative = inhibition) at 1uM": 6.48}, {"smiles": "Cc1ccccc1OCC(=O)Nc1ccc2c(c1)C(=O)N(CCC(=O)O)C2=O", "hERG current change (%, negative = inhibition) at 1uM": 8.86}, {"smiles": "O=C(NCc1ccccc1)c1c(O)c2cccc3c2n(c1=O)CCC3", "hERG current change (%, negative = inhibition) at 1uM": 6.7}, {"smiles": "Cc1c(-c2ccccc2)oc2c(C(=O)OCC(=O)Nc3ccc(F)cc3)cccc2c1=O", "hERG current change (%, negative = inhibition) at 1uM": 6.58}, {"smiles": "FC(c1nc2ccccc2[nH]1)C(F)(F)F", "note": "(stereo not drawn)", "hERG current change (%, negative = inhibition) at 1uM": 15.6}, {"smiles": "CCOc1ccccc1-c1nc2c(C(C)(C)C)nn(C)c2c(=O)[nH]1", "hERG current change (%, negative = inhibition) at 1uM": -14.7}, {"smiles": "Clc1cccc(CNCC2CCCO2)c1Cl", "note": "(stereo not drawn)", "hERG current change (%, negative = inhibition) at 1uM": 7.08}, {"smiles": "CCCc1cc(=O)oc2c(C)c(OCC(=O)N3CCC[C@@H]3C(=O)O)ccc12", "hERG current change (%, negative = inhibition) at 1uM": 16.7}, {"smiles": "Cl.OC(c1cccc(Cl)c1)(c1cccc(Cl)c1)C1CN2CCC1CC2", "note": "(stereo not drawn)", "hERG current change (%, negative = inhibition) at 1uM": -69.6}, {"smiles": "Cc1ccccc1S(=O)(=O)Cc1ccc(C(=O)NC2CCCCCC2)o1", "hERG current change (%, negative = inhibition) at 1uM": -5.87}, {"smiles": "OCc1cccc[n+]1CCc1ccccc1.[Br-]", "hERG current change (%, negative = inhibition) at 1uM": 17.1}, {"smiles": "C=CCOC(=O)c1c(C)nc2cc3c(cc2c1C)OCO3.Cl", "hERG current change (%, negative = inhibition) at 1uM": 5.95}, {"smiles": "Cc1ccc(C)c(N2CCN(C(=O)CN3C(=O)c4ccccc4C3=O)CC2)c1", "hERG current change (%, negative = inhibition) at 1uM": -1.48}, {"smiles": "O=C(c1cc(-c2ccc3c(c2)OCO3)on1)N1CCN(c2ccc(F)cc2)CC1", "hERG current change (%, negative = inhibition) at 1uM": 2.51}, {"smiles": "N#Cc1ccccc1OCC(=O)N(C1CCCCC1)C1CCS(=O)(=O)C1", "note": "(stereo not drawn)", "hERG current change (%, negative = inhibition) at 1uM": 19.7}, {"smiles": "CC12CCC(=O)N1C(C(=O)Nc1ccc(F)c(F)c1F)CS2", "note": "(stereo not drawn)", "hERG current change (%, negative = inhibition) at 1uM": 12.2}, {"smiles": "N#CC1=C(SCC(N)=O)NC(=O)CC1c1ccccc1Cl", "note": "(stereo not drawn)", "hERG current change (%, negative = inhibition) at 1uM": 8.44}, {"smiles": "CCN(CC)S(=O)(=O)c1ccc(-c2cn3ccc(C)cc3n2)cc1", "hERG current change (%, negative = inhibition) at 1uM": 7.09}, {"smiles": "Cc1cccc(-c2oc3ccccc3c2C#CCCCCO)c1", "hERG current change (%, negative = inhibition) at 1uM": 16.8}, {"smiles": "COC(=O)c1ccc(NS(=O)(=O)c2cc(-c3cc(C)no3)ccc2OC)cc1", "hERG current change (%, negative = inhibition) at 1uM": 10.1}, {"smiles": "COc1cc2c(C(=O)NCc3ccc4c(c3)OCO4)cn(C)c(=O)c2cc1OC", "hERG current change (%, negative = inhibition) at 1uM": 10.8}, {"smiles": "CCOC(=O)C1(Cc2cccc(F)c2)CCN(C(=O)c2cnc(C)cn2)CC1", "hERG current change (%, negative = inhibition) at 1uM": -6.31}, {"smiles": "CC(Sc1n[nH]c(N)n1)C(=O)Nc1ccc(Cl)cn1", "note": "(stereo not drawn)", "hERG current change (%, negative = inhibition) at 1uM": 22}, {"smiles": "CCCCN(CC)CCCNC(=O)c1cc2c(=O)n(C)c3ccccc3c2n1C", "hERG current change (%, negative = inhibition) at 1uM": -14.2}, {"smiles": "CCOC(=O)N1CCN(c2c(N3CCN(c4ccccc4F)CC3)c(=O)c2=O)CC1", "hERG current change (%, negative = inhibition) at 1uM": -14.6}]}]}
